# Out of some 360,000 compounds screened, about 16,000 (4.4%) were called active. The inconclusive results got no clear call from the source; some entries with a clear call stand among them for comparison. The call rests on the fitted dose curve; in most records, active means well fitted inhibition curve with a large enough effect; inconclusive means small, poorly fitted or top-dose-only effect; inactive means no such curve, though single readings can be large or run the other way. Where the call is inconclusive, the potency comes from a doubtful curve fit.
# Biological target: Bromodomain adjacent to zinc finger domain protein 2B (Homo sapiens) (UniProt Q9UIF8)
# Chain of UniProt Q9UIF8 (Q9UIF8 whole entry, looked up, the tested form may be a part): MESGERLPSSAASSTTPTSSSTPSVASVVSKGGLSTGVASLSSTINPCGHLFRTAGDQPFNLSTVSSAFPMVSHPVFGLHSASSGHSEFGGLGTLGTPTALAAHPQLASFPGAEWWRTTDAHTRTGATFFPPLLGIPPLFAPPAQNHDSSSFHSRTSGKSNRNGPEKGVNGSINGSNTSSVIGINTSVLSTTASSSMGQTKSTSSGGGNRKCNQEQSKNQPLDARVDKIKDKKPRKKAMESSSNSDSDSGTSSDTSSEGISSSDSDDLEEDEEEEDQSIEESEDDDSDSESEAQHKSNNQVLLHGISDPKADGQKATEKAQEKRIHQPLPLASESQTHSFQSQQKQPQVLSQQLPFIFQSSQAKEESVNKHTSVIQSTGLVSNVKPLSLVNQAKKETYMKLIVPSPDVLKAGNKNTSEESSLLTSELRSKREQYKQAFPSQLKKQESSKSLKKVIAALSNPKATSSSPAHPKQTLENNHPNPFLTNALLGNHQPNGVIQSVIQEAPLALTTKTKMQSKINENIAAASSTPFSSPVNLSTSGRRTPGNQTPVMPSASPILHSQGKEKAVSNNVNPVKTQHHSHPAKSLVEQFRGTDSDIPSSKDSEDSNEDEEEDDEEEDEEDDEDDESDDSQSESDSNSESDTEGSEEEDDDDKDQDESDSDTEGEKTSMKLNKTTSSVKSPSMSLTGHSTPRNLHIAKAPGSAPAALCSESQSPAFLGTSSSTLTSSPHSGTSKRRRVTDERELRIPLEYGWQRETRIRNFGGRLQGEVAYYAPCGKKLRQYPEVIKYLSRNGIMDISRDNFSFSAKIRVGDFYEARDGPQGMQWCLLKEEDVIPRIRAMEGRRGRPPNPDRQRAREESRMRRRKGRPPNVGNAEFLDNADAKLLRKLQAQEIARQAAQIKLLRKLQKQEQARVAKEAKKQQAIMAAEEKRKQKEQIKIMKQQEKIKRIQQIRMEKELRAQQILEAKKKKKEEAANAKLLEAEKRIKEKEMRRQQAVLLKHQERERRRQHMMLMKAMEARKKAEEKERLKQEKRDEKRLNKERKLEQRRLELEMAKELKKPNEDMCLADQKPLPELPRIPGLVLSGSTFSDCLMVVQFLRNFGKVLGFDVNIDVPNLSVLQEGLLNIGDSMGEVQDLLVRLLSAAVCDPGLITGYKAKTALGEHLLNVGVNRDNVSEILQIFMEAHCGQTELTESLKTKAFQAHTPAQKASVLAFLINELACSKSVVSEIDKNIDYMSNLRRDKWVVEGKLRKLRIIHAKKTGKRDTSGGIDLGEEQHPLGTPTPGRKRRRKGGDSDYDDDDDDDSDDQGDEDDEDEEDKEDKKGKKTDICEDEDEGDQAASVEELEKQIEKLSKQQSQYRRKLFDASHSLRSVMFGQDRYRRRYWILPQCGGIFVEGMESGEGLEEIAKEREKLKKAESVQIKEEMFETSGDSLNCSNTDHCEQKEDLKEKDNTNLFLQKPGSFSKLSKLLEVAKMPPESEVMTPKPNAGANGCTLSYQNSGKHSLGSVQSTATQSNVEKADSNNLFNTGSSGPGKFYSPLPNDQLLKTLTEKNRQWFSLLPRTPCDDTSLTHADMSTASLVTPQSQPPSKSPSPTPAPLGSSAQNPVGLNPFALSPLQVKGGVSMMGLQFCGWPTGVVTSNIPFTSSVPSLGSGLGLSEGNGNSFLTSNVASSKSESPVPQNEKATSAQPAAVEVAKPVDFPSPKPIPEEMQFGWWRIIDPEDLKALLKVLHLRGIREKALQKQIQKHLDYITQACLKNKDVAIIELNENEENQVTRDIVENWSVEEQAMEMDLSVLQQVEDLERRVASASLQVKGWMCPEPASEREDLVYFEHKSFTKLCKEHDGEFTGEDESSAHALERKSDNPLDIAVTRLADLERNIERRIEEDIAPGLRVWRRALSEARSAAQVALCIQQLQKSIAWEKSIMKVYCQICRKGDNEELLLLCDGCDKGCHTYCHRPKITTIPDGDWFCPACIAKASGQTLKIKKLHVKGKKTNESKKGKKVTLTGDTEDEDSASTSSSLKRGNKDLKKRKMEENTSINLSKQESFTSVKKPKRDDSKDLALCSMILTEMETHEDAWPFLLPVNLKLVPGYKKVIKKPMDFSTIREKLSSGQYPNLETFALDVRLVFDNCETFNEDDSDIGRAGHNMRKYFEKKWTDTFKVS
# Test: qHTS Assay for Inhibitors of BAZ2B; further: nearly all actives have a fitted effect of over 60% in size
# Conditions: AlphaScreen BAZ2B-H3K14Ac peptide displacement; activity change, negative = inhibition: at 114 µM (top of the series)
# Method in brief: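 BAZ2B 50 nM plus b-H3(5-23)K14Ac 50 nM, PBS pH 7.4/0.01% Tween-20, 30 min RT; compound added (max 110 uM), 30 min RT; streptavidin donor/Ni-chelate acceptor beads 10 ug/mL final, 20 min dark; AlphaScreen read.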
# On the % scale 0 is the no-effect control and ±100 the full control effect; potency means the concentration at half of the fitted maximal effect; tags describe the fitted curve by direction and shape.
Structure (SMILES),Potency,"activity change, negative = inhibition"
COc1cc(/C=C2\SC(=Nc3ccccc3)N(CCc3c[nH]c4ccccc34)C2=O)ccc1OC(C)C(=O)O (configuration not stated),active: 44.7 µM,
O=C(NCc1cc2ccccc2[nH]1)C1CCC(=O)N(CCCN2CCCC2=O)C1 (configuration not stated),,inactive: -24.8%
COCCn1c(C)cc(C2=NNC(=Nc3ccccc3)SC2)c1C,active: 50.1 µM,
COC(=O)c1c(NC(C)=O)sc2c1CCCCC2,"inconclusive: 100 µM [inhibitor, single point]",
Cc1ccc(-c2ccc(/C=C(\C#N)C(N)=S)n2C)cc1,"inconclusive: 44.7 µM [inhibitor, partial curve]",
Cc1cc(/C=N/O)c(C)n1-c1ccc(Br)cc1,active: 44.7 µM,
O=C(Cn1sc2ccccc2c1=O)NC12CC3CC(CC(C3)C1)C2,active: 11.2 µM,
COCCCNC(=O)c1cc2c(s1)CS(=O)(=O)C2,"inconclusive: 12.6 µM [inhibitor, single point]",
CCCCCNC(=O)c1cc2c(=O)n3ccccc3nc2n1C,"inconclusive: 11.2 µM [inhibitor, full curve, poor fit]",
CN(C)C(=O)c1ccc(NC(=O)Cn2nc(-c3ccccc3)c3ccccc3c2=O)cc1,,inactive: 4.95%
Cc1ccc(N2CCN(/N=C/c3ccncc3)CC2)cc1,"inconclusive: 31.6 µM [inhibitor, full curve]",
CC(=O)c1c(C)[nH]c(C(=O)N2CCCC(C)C2)c1C (configuration not stated),,inactive: -13.2%
CC(=O)c1c(C)[nH]c(C(=O)OCC(=O)N2CC(=O)Nc3ccccc32)c1C,"inconclusive: 89.1 µM [inhibitor, single point]",
COc1cc(NC(=O)c2cc3sccc3n2C)cc(OC)c1,"inconclusive: 50.1 µM [inhibitor, partial curve]",
Cn1cccc1C(=O)OCC(=O)NCc1ccc2c(c1)OCO2,"inconclusive: 89.1 µM [inhibitor, single point]",
O=C(O)c1ccc(CN2C(=O)c3cccc4c([N+](=O)[O-])ccc(c34)C2=O)cc1,active: 50.1 µM,
CC1=Nc2cc(C(=O)NC3CCCCC3)ccc2Sc2ccc(Cl)cc21,,inactive: -9.98%
CCOC(=O)c1ccc2c(c1)C1C=CCC1C(C(=O)OCC)N2 (configuration not stated),active: 44.7 µM,
COc1ccc(CCNc2oc(-c3ccco3)nc2C#N)cc1,"inconclusive: 50.1 µM [inhibitor, partial curve]",
CCCCCCCn1c2c(c(=N)c3c1CCC3)CCCC2,"inconclusive: 79.4 µM [inhibitor, single point]",
C[C@@H](C(=O)NC1CCCCC1)N1C(=O)N2CCc3c([nH]c4ccccc34)[C@@]2(C)C1=O,"inconclusive: 56.2 µM [inhibitor, partial curve]",
C/C(=N\NC(=O)c1c([N+](=O)[O-])c(C)nn1C)c1ccc(NC(=O)C2CCCC2)cc1,,inactive: -16.7%
O=C(NCCCN1CCOCC1)c1ccc(Sc2cccc(Cl)c2)c([N+](=O)[O-])c1,"inconclusive: 79.4 µM [inhibitor, single point]",
Cc1nc(CCNC(=O)CC2C(=O)NCCN2Cc2ccccc2)sc1C (configuration not stated),,inactive: -9.84%

Structure (SMILES),Potency,"activity change, negative = inhibition"
COc1ccc(N2CCN(c3ccc([N+](=O)[O-])cc3Cl)CC2)cc1,active: 10 µM,
Cn1nc(C(=O)Nc2ccc(S(=O)(=O)Nc3ncccn3)cc2)ccc1=O,"inconclusive: 39.8 µM [inhibitor, single point]",
O=c1cc(-c2ccc(O)cc2)oc2c(O)c(O)c(O)c(O)c12,active: 44.7 µM,
O=C(COc1ccc(Cl)cc1Cl)NC(=S)N1CCCc2ccccc21,active: 79.4 µM,
COc1cc(NS(=O)(=O)c2ccc3[nH]c(=O)[nH]c3c2)cc(OC)c1,"inconclusive: 89.1 µM [inhibitor, single point]",
CCOC(=O)c1ccc(NC(=O)c2c(NC(=O)CCC(=O)O)sc3c2CCCCC3)cc1,,inactive: -31.2%
O=P(c1ccccc1)(c1ccccc1)c1nc(-c2ccc(Cl)cc2)oc1N1CCOCC1,active: 44.7 µM,
O=C(N/N=C/c1ccc2c(c1)OCO2)c1cc2ccccc2o1,"inconclusive: 79.4 µM [inhibitor, single point]",
O=C(CC1SC(=O)N(c2ccccc2)C1=O)Nc1ccc(Br)cc1 (configuration not stated),"inconclusive: 79.4 µM [inhibitor, single point]",
Cc1cc(Cl)ccc1OCC(=O)NN1C(=O)C2C3C=CC(C3)C2C1=O (configuration not stated),"inconclusive: 89.1 µM [inhibitor, single point]",
Cc1ccc(NC2=C(N3CCOCC3)C(=O)c3ccccc3C2=O)cc1,active: 14.1 µM,
O=C(NC1(C(F)(F)F)C(=O)Nc2c1c(=O)[nH]c(=O)n2CCc1ccccc1)c1ccc(Cl)cc1 (configuration not stated),,inactive: -2.01%
COc1ccccc1NC(=O)N1CCCC1C(=O)Nc1ccc(NC(C)=O)cc1 (configuration not stated),,inactive: -22.9%
CC(=O)c1c(C)[nH]c(C(=O)COC(=O)c2cccnc2Cl)c1C,"inconclusive: 89.1 µM [inhibitor, single point]",
COC(=O)c1ccc(COC(=O)c2[nH]c(C)c(C(C)=O)c2C)o1,"inconclusive: 50.1 µM [inhibitor, partial curve]",
Nc1nc(-c2ccccc2)cn1N,"inconclusive: 89.1 µM [inhibitor, single point]",
CCCCC1=CC2=C(c3ccco3)C(=O)C(C)(OC(=O)c3ccc(OC)cc3)C(=O)C2=CN1C1CCCCC1 (configuration not stated),"inconclusive: 12.6 µM [inhibitor, partial curve]",
Cc1ccc(-c2csc(NC(=O)N3CCOCC3)n2)cc1,,inactive: -17.4%
C/C(=N\NS(=O)(=O)c1ccc([N+](=O)[O-])cc1)c1cccs1,"inconclusive: 70.8 µM [inhibitor, single point]",
Fc1ccc(COc2cccc(-c3n[nH]c(=S)o3)c2)cc1,"inconclusive: 56.2 µM [inhibitor, partial curve, poor fit]",
Cn1c(=O)c2c([nH]c(=S)n2Cc2ccc(Cl)cc2)n(C)c1=O,active: 22.4 µM,
CCc1cccc(C)c1NC(=O)CCCn1nc(C)c2sc3ccccc3c2c1=O,,inactive: -0.0866%
O=[N+]([O-])c1ccc(SCc2c(F)cccc2Cl)nc1,"inconclusive: 22.4 µM [inhibitor, partial curve]",
N#Cc1ccc(CSc2nnc(NC(=O)C3CC(=O)N(c4ccc5c(c4)OCCO5)C3)s2)cc1 (configuration not stated),"inconclusive: 39.8 µM [inhibitor, partial curve]",

Structure (SMILES),Potency,"activity change, negative = inhibition"
O=C(Cn1c(=O)c2ccccc2n2nncc12)Nc1cccc(F)c1,,inactive: -5.41%
CC1CCN(c2ccc(-c3nc(-c4ccccc4)no3)cc2[N+](=O)[O-])CC1,"inconclusive: 89.1 µM [inhibitor, single point]",
NS(=O)(=O)c1ccc(CCNC(=O)Cc2cccs2)cc1,"inconclusive: 39.8 µM [inhibitor, single point]",
CCc1cc(C(=O)c2ccc(C)cc2)c(NC(=O)CCl)s1,,inactive: -10.6%
CCOC(=O)c1c(C)[nH]c(C)c1S(=O)(=O)N(C)CC(=O)NCc1cccc(Br)c1,"inconclusive: 79.4 µM [inhibitor, single point]",
FC(F)(F)c1cc(-c2ccco2)nc(N2CCN(Cc3ccccc3)CC2)n1,,inactive: -33.3%
Cc1ccccc1NC(=O)CSc1ccsc1[N+](=O)[O-],active: 39.8 µM,
C/C(CC(=O)Nc1ccc(N(C)C)cc1)=N\NC(=O)c1ccc([N+](=O)[O-])cc1,"inconclusive: 70.8 µM [inhibitor, partial curve]",
COc1ccc(-n2c(SCC(=O)Nc3nccs3)nnc2-c2ccoc2C)cc1,"inconclusive: 79.4 µM [inhibitor, single point]",
Cc1cc(C)c2oc(=O)cc(CN3CCC(C)CC3)c2c1,,inactive: 3.08%
CCOC(=O)C1CCCN(C(=O)c2ccc3c(c2)N(Cc2ccc(Cl)cc2)C(=O)c2ccccc2S3=O)C1 (configuration not stated),,inactive: -37.4%
CCC(C)NCCOCCOc1cc(C)c(Cl)c(C)c1 (configuration not stated),active: 79.4 µM,
O=C(Oc1c(CN2CCOCC2)cc(Cl)c2cccnc12)c1ccc(F)cc1,active: 20 µM,
Cc1cc(-c2nnc(SCC(=O)Nc3ccc(S(N)(=O)=O)cc3)n2N)n[nH]1,"inconclusive: 89.1 µM [inhibitor, single point]",
CCS(=O)(=O)C1=NSC2=NC(=O)/C(=C\c3ccc(OC(=O)c4ccco4)cc3)C(=N)N21,"inconclusive: 56.2 µM [inhibitor, partial curve]",
COc1ccc(NC(=O)C2CCN(S(=O)(=O)c3cc(-c4noc(C)n4)ccc3C)CC2)cc1,"inconclusive: 79.4 µM [inhibitor, partial curve]",
CN(C)S(=O)(=O)c1ccc(C(=O)NCc2ccc3[nH]c4c(c3c2)CCCC4)cc1,"inconclusive: 39.8 µM [inhibitor, partial curve]",
CCCCc1c(C)nc2ccccc2c1SCCC(=O)O,"inconclusive: 79.4 µM [inhibitor, single point]",
O=C(Nc1ccc2c(c1)OCO2)c1ccc(NC2CC2)c([N+](=O)[O-])c1,"inconclusive: 63.1 µM [inhibitor, partial curve]",
Cc1ccc(C)c(NC(=S)N2CCC(NC(=O)c3ccco3)CC2)c1,,inactive: 6.45%
CC(=O)c1c(C)[nH]c(C(=O)Nc2ccc(Cl)c(S(=O)(=O)N(C)C)c2)c1C,"inconclusive: 89.1 µM [inhibitor, single point]",
OC1(c2cccs2)CN(c2ccc(Cl)cc2)C2=[N+]1CCCS2 (configuration not stated),"inconclusive: 89.1 µM [inhibitor, single point]",
Cc1cccc(-n2c(C)c(-c3ccccc3)[nH]c2=S)c1,"inconclusive: 39.8 µM [inhibitor, single point]",
CC(=O)c1cc(-c2ccccc2)n(CC(=O)NCCc2ccc(C)cc2)c1C,,inactive: 3.14%
